# Measurements from patent publication US6800434B2, “Peptides as NS3-serine protease inhibitors of hepatitis C virus” (priority 2000, dated 2004).
# Starred links: 1 amine or outer side, 2 acyl side, 3 side chain; linkers in the order of their positions; H or OH if unused. Non-standard residues stand in square brackets, D forms with d. Residues, ends and D or L forms follow the SMILES beside them. ξ: configuration not given here. *: point of attachment. X5 = O=C(N[C@@H]1C[C@@H](C(=O)[*:2])N([*:1])C1)OCc1ccccc1; X33 = O=C(N[C@@H]1C[C@@H](C(=O)[*:2])N([*:1])C1)c1ccccc1; Pro(trans-4-Ph) = O=C(O)[C@@H]1C[C@@H](c2ccccc2)CN1; Leuψ(COCO) = CC(C)C[C@H](N[*:1])C(=O)C(=O)[*:2]; Pro(4R-Bn) = O=C(O)[C@@H]1C[C@@H](Cc2ccccc2)CN1; X11 = CC(C)(C)OC(=O)N1CCN([*:1])C(C(=O)[*:2])C1; Pro(4,4-SCH2CH2S) = O=C(O)[C@@H]1CC2(CN1)SCCS2; X35 = C=CC[C@@H]1C[C@@H](C(=O)[*:2])N([*:1])C1; X25 = C=CC[C@H](N[*:1])C(=O)C(=O)[*:2]; X1 = CCC[C@H](N[*:1])C(=O)C(=O)[*:2]; X3 = CCCC(N[*:1])C(=O)C(=O)[*:2]; Cha = N[C@@H](CC1CCCCC1)C(=O)O; Tle = CC(C)(C)[C@H](N)C(=O)O; Chg = N[CH](C(=O)O)C1CCCCC1; Thz = O=C(O)[C@@H]1CSCN1; ξE = NC(CCC(=O)O)C(=O)O; ξV = CC(C)C(N)C(=O)O; OtBu = CC(C)(C)O*; NHAllyl = C=CCN*; OAll = C=CCO*
# Biological target: Recombinant heterodimeric HCV NS3/NS4A protease (strain 1a) (Hepatitis C virus genotype 1a, UniProt P27958)
# Experiment: biochemical
# Conditions: Ki* Range
row,Compound,Ki
1,C=CCNC(=O)C(=O)C(CCC)NC(=O)[C@@H]1CCCN1C(=O)[C@@H](NC(=O)[C@@H](NC(=O)[C@H](CCC(=O)OC(C)(C)C)NC(=O)[C@H](CCC(=O)OC(C)(C)C)NC(C)=O)C(C)C)C(C)(C)C (stereo partly drawn) [Compound 48] (Ac-E(OtBu)E(OtBu)V[Tle]P[X3]-NHAllyl),101 to 999 nM
2,CCC[C@H](NC(=O)[C@@H]1CSCN1C(=O)[C@@H](NC(=O)[C@@H](NC(=O)[C@H](CCC(=O)O)NC(=O)[C@H](CCC(=O)O)NC(C)=O)C(C)C)C(C)C)C(=O)C(=O)NCC(=O)O [Ac-EEVV-thioP-nV-(CO)-G-OH] (Ac-EEVV[Thz][X1]G-OH),1 to 100 nM
3,C=CCOC(=O)CNC(=O)C(=O)[C@H](CC=C)NC(=O)[C@@H]1CCCN1C(=O)[C@@H](NC(=O)[C@@H](NC(=O)[C@H](CCC(=O)O)NC(=O)[C@H](CCC(=O)O)NC(C)=O)C(C)C)C(C)C [Ac-EEVVP-G(allyl)-(CO)-G-Oallyl] (Ac-EEVVP[X25]G-OAll),101 to 999 nM
4,C=CC[C@@H]1C[C@@H](C(=O)N[C@@H](CCC)C(=O)C(=O)NCC(=O)O)N(C(=O)[C@@H](NC(=O)[C@@H](NC(=O)[C@H](CCC(=O)O)NC(=O)[C@H](CCC(=O)O)NC(C)=O)C(C)C)C(C)C)C1 [Ac-EEVV-P(4t-allyl)-nV-(CO)-G-OH] (Ac-EEVV[X35][X1]G-OH),1 to 100 nM
5,C=CC[C@H](NC(=O)[C@@H]1CCCN1C(=O)[C@@H](NC(=O)[C@@H](NC(=O)[C@H](CCC(=O)O)NC(=O)[C@H](CCC(=O)O)NC(C)=O)C(C)C)C(C)C)C(=O)C(=O)NCC(=O)OCC [Ac-EEVVP-G(allyl)-(CO)-G-OEt] (Ac-EEVVP[X25]G-OEt),101 to 999 nM
6,CCC[C@H](NC(=O)[C@@H]1C[C@@H](c2ccccc2)CN1C(=O)[C@@H](NC(=O)[C@@H](NC(=O)[C@H](CCC(=O)O)NC(=O)[C@H](CCC(=O)O)NC(C)=O)C(C)C)C(C)C)C(=O)C(=O)NCC(=O)O [Ac-EEVV-P(4t-Ph)-nV-(CO)-G-OH] (Ac-EEVV[Pro(trans-4-Ph)][X1]G-OH),1 to 100 nM
7,CCCC(NC(=O)[C@@H]1CCCN1C(=O)[C@@H](NC(=O)[C@@H](NC(=O)[C@H](CCC(=O)OC(C)(C)C)NC(=O)[C@H](CCC(=O)OC(C)(C)C)NC(C)=O)C(C)C)C(C)C)C(=O)C(=O)NCC(=O)O (stereo partly drawn) [Compound 56] (Ac-E(OtBu)E(OtBu)VVP[X3]G-OH),101 to 999 nM
8,"CCC[C@H](NC(=O)[C@@H]1CCCN1C(=O)[C@@H](NC(=O)[C@@H](NC(=O)[C@H](CCC(=O)O)NC(=O)[C@H](CCC(=O)O)NC(C)=O)C(C)C)C(C)C)C(=O)C(=O)NCC(=O)O [Ac-EEVVP-nV-(CO)-G-OH, Ac-Glu-Glu-Val-Val-Pro-nVal-(CO)-Gly-OH] (Ac-EEVVP[X1]G-OH)",1 to 100 nM
9,"CCC[C@H](NC(=O)[C@@H]1C[C@@H](NC(=O)c2ccccc2)CN1C(=O)[C@@H](NC(=O)[C@@H](NC(=O)[C@H](CCC(=O)O)NC(=O)[C@H](CCC(=O)O)NC(C)=O)C(C)C)C(C)C)C(=O)C(=O)NCC(=O)O [Ac-EEVV-P(4t-NHBzl)-nV-(CO)-G-OH, Ac-Glu-Glu-Val-Val-Pro(4t-NHBzl)-nVal-(CO)-Gly-OH] (Ac-EEVV[X33][X1]G-OH)",1 to 100 nM
10,C=CCOC(=O)CNC(=O)C(=O)C(CCC)NC(=O)[C@@H]1C[C@@H](NC(=O)OCc2ccccc2)CN1C(=O)C(NC(=O)C(NC(=O)C(CCC(=O)OC(C)(C)C)NC(=O)C(CCC(=O)O)NC(C)=O)C(C)C)C(C)C (stereo partly drawn) [Compound 37] (Ac-[ξE][ξE](OtBu)[ξV][ξV][X5][X3]G-OAll),101 to 999 nM
11,CCC[C@H](NC(=O)[C@@H]1C[C@@H](Cc2ccccc2)CN1C(=O)[C@@H](NC(=O)[C@@H](NC(=O)[C@H](CCC(=O)O)NC(=O)[C@H](CCC(=O)O)NC(C)=O)C(C)C)C(C)C)C(=O)C(=O)NCC(=O)O [Ac-EEVV-P(4t-Bn)-nV-(CO)-G-OH] (Ac-EEVV[Pro(4R-Bn)][X1]G-OH),1 to 100 nM
12,C=CCOC(=O)CNC(=O)C(=O)[C@H](CC(C)C)NC(=O)CNC(=O)[C@@H](NC(=O)[C@@H](NC(=O)[C@H](CCC(=O)O)NC(=O)[C@H](CCC(=O)O)NC(C)=O)C(C)C)C(C)C [Ac-EEVVG-L-(CO)-G-Oallyl] (Ac-EEVVG[Leuψ(COCO)]G-OAll),101 to 999 nM
13,"C=CCNC(=O)C(=O)C(CCC)NC(=O)[C@@H]1CC2(CN1C(=O)C(NC(=O)C(NC(=O)C(CCC(=O)OC(C)(C)C)NC(=O)C(CCC(=O)O)NC(C)=O)C(C)C)C(C)C)SCCS2 (stereo partly drawn) [Compound 44] (Ac-[ξE][ξE](OtBu)[ξV][ξV][Pro(4,4-SCH2CH2S)][X3]-NHAllyl)",1 to 100 nM
14,C=CCOC(=O)CNC(=O)C(=O)[C@H](CCC)NC(=O)[C@@H]1CCCN1C(=O)[C@@H](NC(=O)[C@@H](NC(=O)[C@H](CCC(=O)O)NC(=O)[C@H](CCC(=O)O)NC(C)=O)C(C)C)C(C)C [Compound 2] (Ac-EEVVP[X1]G-OAll),101 to 999 nM
15,CCC[C@H](NC(=O)[C@@H]1CCCN1C(=O)[C@H](CS)NC(=O)[C@@H](NC(=O)[C@H](CCC(=O)O)NC(=O)[C@H](CCC(=O)O)NC(C)=O)C(C)C)C(=O)C(=O)NCC(=O)O [Ac-EEVCP-nV-(CO)-G-OH] (Ac-EEVCP[X1]G-OH),101 to 999 nM
16,CCCC(NC(=O)[C@@H]1CCCN1C(=O)[C@H](CC1CCCCC1)NC(=O)[C@@H](NC(=O)[C@H](CCC(=O)O)NC(=O)[C@H](CCC(=O)O)NC(C)=O)C(C)C)C(=O)C(=O)NCC(=O)O (stereo partly drawn) [Compound 72] (Ac-EEV[Cha]P[X3]G-OH),101 to 999 nM
17,C=CCNC(=O)C(=O)C(CCC)NC(=O)C1CCCN1C(=O)C(NC(=O)C(NC(=O)C(CCC(=O)OC(C)(C)C)NC(=O)C(CCC(=O)O)NC(C)=O)C(C)C)C1CCCCC1 (stereo not drawn) [Compound 36] (Ac-EE(OtBu)V[Chg]P[X3]-NHAllyl; configuration not given here),1 to 100 nM
18,C=CCOC(=O)CNC(=O)C(=O)C(CCC)NC(=O)C1CN(C(=O)OC(C)(C)C)CCN1C(=O)[C@@H](NC(=O)[C@@H](NC(=O)[C@H](CCC(=O)OC(C)(C)C)NC(=O)[C@H](CCC(=O)OC(C)(C)C)NC(C)=O)C(C)C)C(C)C (stereo partly drawn) [Compound 11] (Ac-E(OtBu)E(OtBu)VV[X11][X3]G-OAll),1000 to 10000 nM
